# Results as given in PubChem BioAssay AID602310 (National Center for Advancing Translational Sciences (NCATS), 2012).
# Out of some 410,000 compounds screened, about 310 (0.076%) were called active. The shares of active, inactive and inconclusive entries below differ from those in the screen. Calls follow the shape of the dose curve; as a rule, active = well fitted curve in the direction sought with a large enough effect; inconclusive = small, poorly fitted or top-dose-only effect; inactive = flat fitted curve, though single readings scatter. Potencies beside an inconclusive call are fits to weak or partial responses and may not hold up.
# Molecular target: DNA dC->dU-editing enzyme APOBEC-3G (Homo sapiens) (UniProt Q9HC16)
# UniProt Q9HC16, sequence (Q9HC16 whole entry, looked up): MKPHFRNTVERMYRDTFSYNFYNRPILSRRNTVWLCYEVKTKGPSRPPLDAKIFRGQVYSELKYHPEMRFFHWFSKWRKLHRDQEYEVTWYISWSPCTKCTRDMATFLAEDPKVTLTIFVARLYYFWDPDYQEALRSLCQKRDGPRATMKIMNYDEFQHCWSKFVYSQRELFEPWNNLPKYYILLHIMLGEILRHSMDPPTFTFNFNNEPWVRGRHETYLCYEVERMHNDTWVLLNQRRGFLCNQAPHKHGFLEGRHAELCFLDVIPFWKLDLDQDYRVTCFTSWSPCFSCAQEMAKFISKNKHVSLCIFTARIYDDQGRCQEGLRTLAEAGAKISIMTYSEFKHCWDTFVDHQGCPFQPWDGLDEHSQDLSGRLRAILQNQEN
# Experiment: qHTS for Inhibitors of Vif-A3G Interactions: qHTS; also: nearly all actives have a fitted effect of over 60% in size;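 as to activity, negative = active: hits raise eYFP signal because A3G escapes Vif-driven loss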
# Settings: HeLa A3G-eYFP + Vif (tagged APOBEC3G with the HIV-1 protein that degrades it), YFP fluorescence, overnight; series mostly up to 46.1 µM; activity, negative = active: at the top concentration
# Procedure, shortened: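 Read-out is eYFP fluorescence (Ex 488/Em 500-530) from Vif-expressing HeLa A3G-eYFP cells; more signal means A3G escaped Vif-mediated degradation. Cells plated overnight, compound pinned in, incubated overnight at 37 deg C.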
# % is scaled to controls: 0 for no effect and ±100 for the full control effect; potency is read from the fitted curve at half-maximal effect; tags tell the direction and shape of the fitted curve.
SMILES,Potency,"activity, negative = active"
c1ccc2c(CCc3c[nH]c4ccccc34)ccnc2c1,active: 11.2 µM,–
O=C(N/N=C/c1c(O)n(-c2ccccc2Cl)c(=O)c2ccccc12)c1cccnc1,"inconclusive: 25.1 µM [inhibitor, single point]",–
COc1ccc(CNC(=O)Cn2c(SCC(=O)Nc3ccc(OC)cc3)nc3ccccc32)cc1,"inconclusive: 22.4 µM [inhibitor, single point]",–
COC(=O)c1cn(C(=O)c2ccccc2Cl)c2ccccc12,"inconclusive: 15.8 µM [inhibitor, single point]",–
COc1ccc(-c2ccc(CCC(=O)O)n2CC(C)C)cc1,"inconclusive: 25.1 µM [inhibitor, single point]",–
CCCCCOc1ccc(Br)cc1/C(C)=N/NC1=NCCN1,"inconclusive: 3.55 µM [inhibitor, single point]",–
Cc1cc(C)cc(NC(=O)C(Sc2ncnc3ccccc23)c2ccccc2)c1 (stereo not drawn),–,inactive: 1%
COc1cccc(/C=N/n2c(C3CCCCC3)n[nH]c2=S)c1,active: 7.08 µM,–
CC1=C(c2ccc(Cl)cc2)S(=O)(=O)NC1=NCCCN1CCN(c2cc(C)ccc2C)CC1,"inconclusive: 25.1 µM [inhibitor, single point]",–
Cc1ccc2[nH]c(C(=O)N/N=C/c3ccccc3C(=O)O)c(-c3ccccc3)c2c1,"inconclusive: 5.62 µM [inhibitor, full curve, poor fit]",–
CCOC(=O)c1ccc(N2C(=O)c3[nH]nc(-c4ccccc4)c3C2c2ccc(CC)cc2)cc1 (stereo not drawn),"inconclusive: 35.5 µM [inhibitor, single point]",–
O=C(NCc1cccs1)c1ccc2c(=O)n3nc(Nc4ccccc4)sc3nc2c1,"inconclusive: 3.16 µM [inhibitor, partial curve, poor fit]",–
O=C(NCc1ccccc1C(F)(F)F)c1cccc2c1C(=O)c1ccc(N3CCC(N4CCCCC4)CC3)cc1S2(=O)=O,"inconclusive: 22.4 µM [inhibitor, single point]",–
COC(=O)c1ccccc1NC(=O)C1CC(=O)N(c2ccc(OC)cc2)C1 (stereo not drawn),"inconclusive: 12.6 µM [inhibitor, partial curve, poor fit]",–
C=CCn1c(C)cc(C(=O)Cn2ncc(Cl)c(Cl)c2=O)c1C,"inconclusive: 22.4 µM [inhibitor, single point]",–
O=C(/C(=C/c1ccc(Cl)cc1)c1nc2ccccc2[nH]1)c1ccccc1,"inconclusive: 3.16 µM [inhibitor, partial curve, poor fit]",–
O=C(OCc1ccc(Br)cc1)c1cc([N+](=O)[O-])ccc1N1CCOCC1,"inconclusive: 1.26 µM [inhibitor, partial curve, poor fit]",–
O=C(C=C=Nc1ccccc1)C(=O)N=C=Cc1ccccc1,"inconclusive: 10 µM [inhibitor, partial curve]",–
Cc1[nH]c2ccccc2c1C(=O)/C=C\c1ccccc1Cl,"inconclusive: 14.1 µM [inhibitor, single point]",–

SMILES,Potency,"activity, negative = active"
COc1ccc(/C=C/C(=O)NC(=S)NNC(=O)c2cccs2)cc1,"inconclusive: 2.51 µM [inhibitor, full curve, poor fit]",–
O=C(Cn1c(-c2ccccc2)c[n+]2ccsc12)c1ccc([N+](=O)[O-])cc1,–,inactive: 4.11%
CCOc1ccc(-n2c(N)c(C(=O)NCc3ccco3)c3nc4ccccc4nc32)cc1,–,inactive: -15.6%
COc1ccc(NS(=O)(=O)c2cc(NC(=O)c3ccc(Cl)cc3)ccc2N2CCOCC2)cc1,"inconclusive: 1.12 µM [inhibitor, full curve, poor fit]",–
CC(/C=N/NC(=O)c1cc(-c2ccncc2)nc2ccccc12)=C\c1ccco1,"inconclusive: 14.1 µM [inhibitor, partial curve, poor fit]",–
COc1ccc(C(=O)N[C@H](C(=O)Nc2nc3ccccc3[nH]2)C(C)C)cc1,"inconclusive: 1.26 µM [inhibitor, full curve, poor fit]",–
CC(C)(C)n1ncc2c(=O)n(CC(=O)NCc3ccc(F)cc3)cnc21,"inconclusive: 7.94 µM [inhibitor, partial curve, poor fit]",–
CC1(C(=O)NCCc2ccccc2)Cc2c(-c3ccccc3)ccnc2O1 (stereo not drawn),"inconclusive: 12.6 µM [inhibitor, partial curve, poor fit]",–
CS(=O)(=O)c1ccc(C(=O)OCC(=O)Nc2cccnc2Cl)cc1[N+](=O)[O-],"inconclusive: 35.5 µM [inhibitor, single point]",–
CC(=O)Nc1ccc(-c2ccnc3c2CC(C(=O)Nc2cccc(N(C)C)c2)O3)cc1 (stereo not drawn),"inconclusive: 7.08 µM [inhibitor, partial curve]",–
COc1ccc(OC)c(/C(C)=N\NC(=O)c2cc3cc(Cl)ccc3n2C)c1,"inconclusive: 6.31 µM [inhibitor, full curve]",–
Cc1cccc(NC(=O)CSc2nc(C)c(CC(=O)c3ccc(Br)cc3)c(C)c2C#N)c1C,"inconclusive: 3.55 µM [inhibitor, single point]",–
O=C(Nc1c2c(nn1-c1ccc(Cl)cc1)CS(=O)(=O)C2)c1ccc2c(c1)OCO2,–,inactive: -0.645%
COc1ccc(-c2n[nH]c(=S)n2/N=C/C=C/c2ccccc2OC)cc1,"inconclusive: 6.31 µM [inhibitor, full curve]",–
COc1ccccc1NC(=O)c1oc2ccccc2c1NC(=O)c1cccc(OC)c1OC,active: 5.62 µM,–
CCn1c2ccccc2c2cc(NC(=O)COc3ccccc3OC)ccc21,"inconclusive: 2.51 µM [inhibitor, full curve, poor fit]",–
COc1cc(C2c3cc4c(cc3OC(N3CCCCC3)C2C)OCO4)cc(OC)c1O (stereo not drawn),"inconclusive: 20 µM [inhibitor, single point]",–
O=c1c2ccccc2sn1-c1cc(S(=O)(=O)N2CCOCC2)ccc1N1CCOCC1,"inconclusive: 31.6 µM [inhibitor, single point]",–
O=C(CCCl)Nc1nnc(SCC(=O)NC2CCCC2)s1,"inconclusive: 25.1 µM [inhibitor, single point]",–
